Assay results reported in article PMC4336329 (PLoS ONE, 2015).
In all, about 310,000 compounds went through this assay and about 14,000 (4.5%) showed an effect of 50% or more. Effects have a minus sign here. The list shows a part of the results. Where a SMILES comes first, the peptide text is derived from it. [ ]: non-standard residue; d: D form. The star is where a group is joined. Phe(4-Me) = Cc1ccc(C[CH](N)C(=O)O)cc1; Bz = O=C(c1ccccc1)*

target: human ether-à-go-go-related gene (hERG) potassium channel (human, UniProt Q12809); test: primary screen, population patch clamp on CHO cells stably expressing hERG
Sequence (Q12809 whole entry, looked up): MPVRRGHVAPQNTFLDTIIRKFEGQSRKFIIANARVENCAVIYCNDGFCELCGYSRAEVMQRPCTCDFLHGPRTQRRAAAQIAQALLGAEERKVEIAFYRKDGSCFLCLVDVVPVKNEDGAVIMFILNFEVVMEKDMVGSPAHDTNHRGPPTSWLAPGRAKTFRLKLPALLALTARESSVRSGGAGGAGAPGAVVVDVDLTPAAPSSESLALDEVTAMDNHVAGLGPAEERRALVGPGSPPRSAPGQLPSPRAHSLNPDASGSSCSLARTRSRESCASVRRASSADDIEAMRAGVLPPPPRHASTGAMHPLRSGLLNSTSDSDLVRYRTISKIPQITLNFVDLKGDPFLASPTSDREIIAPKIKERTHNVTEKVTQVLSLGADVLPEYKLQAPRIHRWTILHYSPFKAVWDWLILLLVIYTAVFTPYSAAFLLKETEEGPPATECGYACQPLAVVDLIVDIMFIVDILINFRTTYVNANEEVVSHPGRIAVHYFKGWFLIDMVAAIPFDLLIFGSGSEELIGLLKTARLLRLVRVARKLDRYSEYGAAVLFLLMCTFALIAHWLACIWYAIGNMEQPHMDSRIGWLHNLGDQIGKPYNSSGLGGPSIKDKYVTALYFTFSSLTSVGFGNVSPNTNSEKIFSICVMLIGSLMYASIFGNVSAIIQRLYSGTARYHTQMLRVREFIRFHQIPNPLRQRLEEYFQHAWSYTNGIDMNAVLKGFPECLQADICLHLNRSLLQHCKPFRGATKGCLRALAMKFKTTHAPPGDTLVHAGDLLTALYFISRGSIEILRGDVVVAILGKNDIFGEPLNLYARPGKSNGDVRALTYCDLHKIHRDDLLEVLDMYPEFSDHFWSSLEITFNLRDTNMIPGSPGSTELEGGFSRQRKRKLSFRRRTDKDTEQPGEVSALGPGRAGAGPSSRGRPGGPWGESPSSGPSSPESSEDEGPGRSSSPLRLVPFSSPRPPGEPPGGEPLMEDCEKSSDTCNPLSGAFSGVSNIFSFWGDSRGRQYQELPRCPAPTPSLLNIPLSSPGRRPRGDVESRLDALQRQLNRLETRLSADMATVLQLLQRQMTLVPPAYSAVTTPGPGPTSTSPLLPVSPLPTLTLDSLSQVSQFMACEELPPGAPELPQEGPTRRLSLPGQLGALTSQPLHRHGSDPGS
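Further: peak tail current of the secondary pulse compared with the same well before compound.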

SMILES	hERG current change (%, negative = inhibition) at 10uM [%]
CCOc1ccccc1C(=O)Nc1nnc(Cc2ccc(OC)c(OC)c2)s1	15.2
O=C(O)c1cc([N+](=O)[O-])cc2c1nnn2O	9.83
CCOC(=O)c1cc(-c2ccccc2)nn1Cc1cc(C)no1	-4.06
CCOC(=O)c1ccc(Cn2c(-c3ccccc3)nnc2-c2ccccc2)o1	-7.29
CN(C(=O)c1ccc(NC(=O)Cc2cccc(NC(=O)C3CCN(C(=O)C4CCCC4)CC3)c2)cc1)C1CCCC1	4.38
CN1CC(=O)NC1=NC(=O)c1cc(F)c(F)cc1Cl	10.1
Cc1ccc(NC(=O)CC2C(=O)N(Cc3ccccc3)C(=S)N2NC(=O)c2cccc(F)c2)c(C)c1 (stereo not shown)	-17.6
N#C/C(=C\c1ccc(OCC(N)=O)cc1)S(=O)(=O)c1ccccc1	11.3
Cc1nnc(N2CCC(C(=O)NC3CCC(C)CC3)CC2)c2nn(-c3ccc(Cl)cc3)c(C)c12 (stereo not shown)	18.8
COC(=O)CC1SCCNC1=O (stereo not shown)	9.08
O=C(COc1ccccc1C(=O)c1cnn(-c2ccccc2)c1)Nc1ccc2ccccc2c1	10.1
CN1C(=O)C(C)(C)c2cc(S(=O)(=O)N(C)Cc3ccccc3)ccc21	-2.33
COCCN1CCC(CNCc2cn(-c3cc(C)ccc3C)nc2-c2ccccc2)C1 (stereo not shown)	-18
COc1ccc(OC)c(/C=N/NC(=O)CC(=O)NC2CCCCC2)c1	6.32
Cc1cc(O)c(/C=N/Nc2ccc(F)cc2)c(=O)o1	8.69
NNC(=O)c1cc2ccccc2cc1O	3.78

SMILES	hERG current change (%, negative = inhibition) at 10uM [%]
Cc1cnc(C(=O)OCC(=O)Nc2cccc(S(=O)(=O)N3CCCCC3)c2)cn1	-1.78
Cc1ccc(C(=O)OCC(=O)NCCNC(=O)COC(=O)c2ccc(C)o2)o1	22.4
Cc1cc(OCC[N+]2(C)CCCCC2)nc2ccccc12.[I-]	12.7
CCC(C)Oc1cccc(OCCCCN2C(=O)NC(C)(C)C2=O)c1 (stereo not shown)	-17.8
c1cncc(-c2nc(NCCCn3ccnc3)c3ccccc3n2)c1	-53.5
O=C(NCc1ccccc1Cl)c1ccc2nc[nH]c2c1	5.08
CC(=O)Nc1ccc(S(=O)(=O)N(C)CC(=O)Nc2ccc(F)c(F)c2F)cc1	-6.17
Cc1ccc(COC(=O)c2cc(S(=O)(=O)N3CCOCC3)ccc2C)cc1	-2.75
CCc1ccc(/C=N/NC(=O)c2nnn(-c3nonc3N)c2CN2CCc3ccccc32)cc1	10.3
Cc1ccccc1-c1ccnc2[nH]n(-c3ccccc3)c(=O)c12	21
O=c1[nH]c(O)c(C=NCCc2ccccc2)c(=O)[nH]1	16.2
Cc1ccc(CC(NC(=O)c2ccccc2)C(=O)N2CCCC2C(=O)O)cc1 (stereo not shown) (Bz-[Phe(4-Me)]-Pro-OH; configuration not given here)	-11.8
CCc1ccc(NC(=O)C(C)n2nc(C)c([N+](=O)[O-])c2C)cc1 (stereo not shown)	9.14
Cn1c(N)c(S(=O)(=O)N2CCN(C(=O)c3ccco3)CC2)c(=O)n(C)c1=O	18.4
C/C(=C\COc1cc(=O)[nH]c2ccccc12)CCC(O)C(C)(C)O (stereo not shown)	4.58
